Assay results: the supplement of paper PMC10369915
The list shows a part of the results. No stated cut-off is given here; in the data, active = 3.2 or more and inactive = the rest. Only a few entries rise above the background.

Tests used:
Assay in all cases: enrichment score (SH2-bound / input frequency) (ratio); bacterial display of known human phosphotyrosine sites (pTyr-Var adds point mutants) read by sequencing; higher = stronger binding; tyrosines were phosphorylated by kinases first
Conditions in all cases: peptide library: Human pTyr
[1] = target: SHP2 C-SH2 domain E139D
[2] = target: SHP2 C-SH2 domain wild-type
[3] = target: SHP2 N-SH2 domain L43F
[4] = target: SHP2 N-SH2 domain T42A
[5] = target: SHP2 N-SH2 domain T52S
[6] = target: SHP2 N-SH2 domain wild-type

Measured: enrichment score
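Further: displayed peptides selected on beads carrying the immobilized SH2 domain, with library peptides lacking any tyrosine serving as negative controls.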

FGSGDDPYSSAEPHV [TRIM28_HUMAN_458]
inactive: [1] 0.524 | [2] 0.434 | [3] 0.458 | [4] 0.43 | [5] 0.555 | [6] 0.553

VIDDESDYFASDSNQ [TRIP4_HUMAN_289]
inactive: [1] 1.19 | [2] 1.01 | [3] 0.985 | [4] 1.06 | [5] 1.01 | [6] 1.15

EEDSSIDYDLNLPDT [TRPC4_HUMAN_959]
inactive: [1] 0.983 | [2] 0.951 | [3] 0.96 | [4] 0.993 | [5] 1.05 | [6] 0.933

DTVTHEDYVTTRLGG [TRPC4_HUMAN_972]
inactive: [1] 0.752 | [2] 0.446 | [3] 0.489 | [4] 0.516 | [5] 0.614 | [6] 0.79

ASYTDSYYKGQTALH [TRPV1_HUMAN_200]
inactive: [1] 0.656 | [2] 0.564 | [3] 0.639 | [4] 0.522 | [5] 0.637 | [6] 0.569

ASATDSAYKGQTALH [TRPV1_HUMAN_200_YA]
inactive: [1] 0.662 | [2] 0.583 | [3] 0.628 | [4] 0.608 | [5] 0.638 | [6] 0.482

KVVYENAYGQFIGPH [TRXR1_HUMAN_281]
inactive: [1] 1 | [2] 1.33 | [3] 0.879 | [4] 1.84 | [5] 0.855 | [6] 0.871

SPPAEDVYDVPPPAP [BCAR1_HUMAN_362]
inactive: [1] 0.811 | [2] 0.77 | [3] 0.593 | [4] 0.773 | [5] 0.774 | [6] 0.981

ELTAEFLYDEVHPKQ [TWF2_HUMAN_309]
inactive: [1] 0.64 | [2] 0.805 | [3] 0.947 | [4] 0.833 | [5] 0.74 | [6] 1.08

AVPEGHEYARVREDG [TYK2_HUMAN_1054_YA]
inactive: [1] 1.13 | [2] 2.37 | [3] 0.805 | [4] 0.734 | [5] 0.65 | [6] 0.525

VPEGHEAYRVREDGD [TYK2_HUMAN_1055_YA]
inactive: [1] 1.13 | [2] 0.954 | [3] 1.03 | [4] 1.17 | [5] 1.16 | [6] 1.08

ITETESPYQELQGQR [TYOBP_HUMAN_91]
inactive: [1] 0.71 | [2] 0.627 | [3] 0.756 | [4] 0.869 | [5] 0.802 | [6] 0.872

GVVDSGVYAVPPPAE [BCAR1_HUMAN_410]
inactive: [1] 0.673 | [2] 0.533 | [3] 0.482 | [4] 0.498 | [5] 0.646 | [6] 0.528

KIYSGDYYRQGCASK [TYRO3_HUMAN_686]
inactive: [1] 1.29 | [2] 1.26 | [3] 1.44 | [4] 1.47 | [5] 1.71 | [6] 1.4

ADIDEGLYSRQLYVL [UBA1_HUMAN_55]
inactive: [1] 0.823 | [2] 0.764 | [3] 0.809 | [4] 0.793 | [5] 0.852 | [6] 1.49

TSSKEDDYESDAATI [UBR4_HUMAN_370]
inactive: [1] 0.815 | [2] 0.881 | [3] 0.891 | [4] 0.722 | [5] 1.14 | [6] 0.939

FGLSKKIYNGDAARQ [UFO_HUMAN_698_YA]
inactive: [1] 0.903 | [2] 0.866 | [3] 0.504 | [4] 0.447 | [5] 1.29 | [6] 0.579

KIYNGDYYRQGRIAK [UFO_HUMAN_703]
inactive: [1] 1.28 | [2] 1.52 | [3] 1.27 | [4] 1.22 | [5] 1.22 | [6] 1.64

KIANGDAYRQGRIAK [UFO_HUMAN_703_YA]
inactive: [1] 1.34 | [2] 1.14 | [3] 0.983 | [4] 1.25 | [5] 1.34 | [6] 1.39

ADCLDGLYALMSRCW [UFO_HUMAN_779]
inactive: [1] 1.09 | [2] 0.971 | [3] 1.4 | [4] 1.05 | [5] 1.21 | [6] 1.18

EVHPAGRYVLCPSTT [UFO_HUMAN_866]
inactive: [1] 0.946 | [2] 0.93 | [3] 0.865 | [4] 0.914 | [5] 1.09 | [6] 1.02

AKEAGFRYELVQARW [UGGG2_HUMAN_1289_YA]
inactive: [1] 1.56 | [2] 1.24 | [3] 1.16 | [4] 1.17 | [5] 1.42 | [6] 1.39

EGGWMEDYDAVHLQG [BCAR1_HUMAN_664_YA]
inactive: [1] 0.645 | [2] 0.574 | [3] 0.577 | [4] 0.807 | [5] 0.68 | [6] 0.497

SAEGLNPYGLVAPRF [URP2_HUMAN_504]
inactive: [1] 1.07 | [2] 0.941 | [3] 1.04 | [4] 1.06 | [5] 0.941 | [6] 1.14

SENNKLTYSHGNYLF [VAMP7_HUMAN_45]
inactive: [1] 1.02 | [2] 1.27 | [3] 0.961 | [4] 0.984 | [5] 0.946 | [6] 1.16

SENNKLTYSHGNALF [VAMP7_HUMAN_45_YA]
inactive: [1] 0.761 | [2] 0.639 | [3] 0.8 | [4] 0.678 | [5] 0.861 | [6] 0.781

SSRSSSPYSKSPVSK [BCLAF1_HUMAN_150]
inactive: [1] 0.708 | [2] 0.644 | [3] 0.582 | [4] 0.515 | [5] 0.681 | [6] 0.738

VEEDYSEYCGGGGGG [VAV_HUMAN_844]
inactive: [1] 0.823 | [2] 0.786 | [3] 1.08 | [4] 0.881 | [5] 0.896 | [6] 0.997

VEEDEDLYDCVENEE [VAV1_HUMAN_160]
inactive: [1] 1.23 | [2] 1.34 | [3] 1.57 | [4] 1.12 | [5] 1.35 | [6] 1.21

TPGAANLYQVFIKAK [VAV1_HUMAN_267_YA]
inactive: [1] 1.4 | [2] 1.86 | [3] 1.68 | [4] 1.66 | [5] 2.07 | [6] 1.45

SINDEDIYKGLPDLI [VAV3_HUMAN_141]
inactive: [1] 0.758 | [2] 0.756 | [3] 0.72 | [4] 0.746 | [5] 0.678 | [6] 0.74

EDEGGEVYEDLMKAE [VAV3_HUMAN_173]
inactive: [1] 1.27 | [2] 1.17 | [3] 1.11 | [4] 1.23 | [5] 1.3 | [6] 1.23

DIYKNPDYVRKGDTR [VGFR1_HUMAN_1053]
inactive: [1] 1.26 | [2] 0.89 | [3] 0.951 | [4] 1.11 | [5] 1.01 | [6] 0.911

DIAKNPDYVRKGDTR [VGFR1_HUMAN_1053_YA]
inactive: [1] 0.833 | [2] 0.766 | [3] 0.904 | [4] 0.854 | [5] 0.866 | [6] 0.988

GRYHRGGYRPVWNRR [BCLAF1_HUMAN_93]
inactive: [1] 0.824 | [2] 0.664 | [3] 0.763 | [4] 0.647 | [5] 0.736 | [6] 0.732

CCSPPPDYNSVVLYS [VGFR1_HUMAN_1327]
inactive: [1] 0.836 | [2] 0.697 | [3] 0.867 | [4] 0.783 | [5] 0.85 | [6] 0.978
